{"source": "paper PMC4336329", "about": "(PLoS ONE, 2015)", "note": "Out of some 310,000 compounds screened, about 14,000 (4.5%) showed an effect of 50% or more. The effect is printed as a negative number. This is one part of the list.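 Also: peak tail current of the secondary pulse compared with the same well before compound.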"}
{"target": "human ether-à-go-go-related gene (hERG) potassium channel (human, UniProt Q12809)", "sequence (Q12809 whole entry, looked up)": "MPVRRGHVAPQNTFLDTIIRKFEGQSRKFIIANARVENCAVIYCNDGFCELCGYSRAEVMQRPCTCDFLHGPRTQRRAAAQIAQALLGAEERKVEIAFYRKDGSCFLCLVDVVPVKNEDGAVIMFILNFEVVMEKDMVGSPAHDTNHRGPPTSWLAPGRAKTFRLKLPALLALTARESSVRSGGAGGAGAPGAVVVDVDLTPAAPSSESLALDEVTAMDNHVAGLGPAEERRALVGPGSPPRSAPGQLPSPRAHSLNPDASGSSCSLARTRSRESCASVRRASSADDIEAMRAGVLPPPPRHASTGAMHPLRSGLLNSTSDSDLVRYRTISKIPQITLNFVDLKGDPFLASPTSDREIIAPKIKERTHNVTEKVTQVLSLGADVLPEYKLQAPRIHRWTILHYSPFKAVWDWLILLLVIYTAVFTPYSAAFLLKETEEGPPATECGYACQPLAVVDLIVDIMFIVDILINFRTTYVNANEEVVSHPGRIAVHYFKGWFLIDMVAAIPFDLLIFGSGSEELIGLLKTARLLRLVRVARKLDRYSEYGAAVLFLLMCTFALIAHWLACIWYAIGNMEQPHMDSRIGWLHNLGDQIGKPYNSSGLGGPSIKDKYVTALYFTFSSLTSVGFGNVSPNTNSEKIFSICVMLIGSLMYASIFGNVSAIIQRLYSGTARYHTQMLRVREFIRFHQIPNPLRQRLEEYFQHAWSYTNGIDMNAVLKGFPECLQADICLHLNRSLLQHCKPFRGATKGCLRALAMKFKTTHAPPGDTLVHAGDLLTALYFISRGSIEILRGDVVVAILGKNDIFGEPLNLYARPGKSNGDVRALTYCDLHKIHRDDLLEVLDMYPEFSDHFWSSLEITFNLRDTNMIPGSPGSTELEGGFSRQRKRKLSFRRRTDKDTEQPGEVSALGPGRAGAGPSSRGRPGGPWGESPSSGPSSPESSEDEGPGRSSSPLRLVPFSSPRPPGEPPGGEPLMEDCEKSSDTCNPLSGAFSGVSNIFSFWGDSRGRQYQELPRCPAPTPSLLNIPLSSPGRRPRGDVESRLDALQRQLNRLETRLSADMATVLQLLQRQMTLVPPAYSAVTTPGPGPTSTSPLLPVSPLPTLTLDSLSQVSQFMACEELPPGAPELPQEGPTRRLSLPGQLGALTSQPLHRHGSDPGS", "test": "primary screen, population patch clamp on CHO cells stably expressing hERG", "units": {"hERG current change (%, negative = inhibition) at 10uM": "%"}}
{"smiles": "O=S(=O)(/N=C/c1ccccc1O)c1cccs1", "hERG current change (%, negative = inhibition) at 10uM": 3.75}
{"smiles": "OC(C#CCN1CCCCC1)(c1ccccc1)c1ccccc1", "hERG current change (%, negative = inhibition) at 10uM": -24.6}
{"smiles": "CSc1nc2nc3c(cc2c(=O)n1-c1ccccc1C)COC(C)(C)C3", "hERG current change (%, negative = inhibition) at 10uM": -21.6}
{"smiles": "Cc1ccc(C2=NOC(C)(c3nnc(-c4ccncc4)o3)C2)cc1", "note": "(centres unmarked)", "hERG current change (%, negative = inhibition) at 10uM": 7.48}
{"smiles": "CS(=O)(=O)O.OC(CCN1CCCCC1)(c1ccccc1)c1ccccc1", "hERG current change (%, negative = inhibition) at 10uM": -36.2}
{"smiles": "CCCc1nc2oc3c(Cl)ncnc3c2c2c1CCCC2", "hERG current change (%, negative = inhibition) at 10uM": 8.03}
{"smiles": "CC(=O)c1c(C)[nH]c(C(=O)CSc2nc3ccc(C)cc3[nH]2)c1C", "hERG current change (%, negative = inhibition) at 10uM": -2.54}
{"smiles": "Cc1ccc(-c2noc(-c3ccccc3C(=O)N3CCN(C)CC3)n2)cc1", "hERG current change (%, negative = inhibition) at 10uM": -51.2}
{"smiles": "COc1ccc(CCNC(=O)Cn2cnc3sc(C)c(-c4ccc(F)cc4)c3c2=O)cc1OC", "hERG current change (%, negative = inhibition) at 10uM": -25.5}
{"smiles": "O=c1cc(Nc2ccc3c(c2)OCCO3)[nH]c(=O)n1Cc1ccc(F)cc1", "hERG current change (%, negative = inhibition) at 10uM": 0.78}
{"smiles": "COc1ccc(CNC(=O)OCCN2CCN(Cc3ccccc3)CCC2=O)cc1", "hERG current change (%, negative = inhibition) at 10uM": -36.2}
{"smiles": "OCCC1CN(Cc2nc(-c3ccccc3)cs2)CCN1Cc1ccc(F)cc1", "note": "(centres unmarked)", "hERG current change (%, negative = inhibition) at 10uM": -69.8}
{"smiles": "CCOc1ccc(N(C(C)C(=O)N/N=C(\\C)C(C)(C)C)S(C)(=O)=O)cc1", "note": "(centres unmarked)", "hERG current change (%, negative = inhibition) at 10uM": 1.74}
{"smiles": "O=C(NCc1ccco1)/C(=C/c1ccco1)NC(=O)c1ccco1", "hERG current change (%, negative = inhibition) at 10uM": 3.07}
{"smiles": "Cc1ccn2c(c1)nc(=O)c1cc(S(=O)(=O)N3CCOCC3)ccc12", "hERG current change (%, negative = inhibition) at 10uM": 9.59}
{"smiles": "COc1ccccc1/C=N/NC(=O)c1ccc(NC(=O)c2ccccc2Br)cc1", "hERG current change (%, negative = inhibition) at 10uM": 3.86}
{"smiles": "O=C(CNC(=O)c1ccccc1C(=O)O)c1ccccc1", "hERG current change (%, negative = inhibition) at 10uM": 1.52}
{"smiles": "COc1cc(C2c3c([nH]c(=O)[nH]c3=O)Nc3ccc4ccccc4c32)ccc1O", "note": "(centres unmarked)", "hERG current change (%, negative = inhibition) at 10uM": -2.8}
{"smiles": "O=C(O)c1cccc(N2C(=O)C3CC=CCC3C2=O)c1", "note": "(centres unmarked)", "hERG current change (%, negative = inhibition) at 10uM": -3.16}
{"smiles": "COc1ccc(CN2CCC(n3nccc3NC(=O)CCCc3ccccc3)CC2)cc1C", "hERG current change (%, negative = inhibition) at 10uM": -93.3}
{"smiles": "Cc1cc(C)c2c(N)c3cccc(C)c3nc2n1", "hERG current change (%, negative = inhibition) at 10uM": -64.7}
{"smiles": "COc1ccc(C2N(S(=O)(=O)c3ccc(C)cc3)CCN2S(=O)(=O)c2ccc(C)cc2)cc1", "hERG current change (%, negative = inhibition) at 10uM": -11.1}
{"smiles": "Cc1cc(C)c(C)c(S(=O)(=O)NC2CCN(Cc3ccccc3)CC2)c1C.Cl", "hERG current change (%, negative = inhibition) at 10uM": 5.25}
{"smiles": "O=C(NCCC(=O)N1CCCC(C(F)(F)F)C1)c1ccc(Br)cc1", "note": "(centres unmarked)", "hERG current change (%, negative = inhibition) at 10uM": 4.48}
{"smiles": "NC(=O)c1cccc(CS(=O)(=O)c2ccc(Cl)cc2)c1", "hERG current change (%, negative = inhibition) at 10uM": -4.75}
{"smiles": "O=C(CCOc1ccccc1)Nc1nnc(-c2ccc3c(c2)OCCO3)o1", "hERG current change (%, negative = inhibition) at 10uM": 19.9}
{"smiles": "C/C(=N\\NC(=O)COc1cccc(Br)c1)c1ccc2c(c1)OCCO2", "hERG current change (%, negative = inhibition) at 10uM": 12.4}
{"smiles": "CCCN(Cc1cc2cc(C)ccc2[nH]c1=O)C(=O)c1ccccn1", "hERG current change (%, negative = inhibition) at 10uM": 7.79}
{"smiles": "Cc1nonc1C1CCCN1Cc1cn[nH]c1-c1ccc2c(c1)OCO2", "note": "(centres unmarked)", "hERG current change (%, negative = inhibition) at 10uM": -25.6}
{"smiles": "COc1ccc(S(=O)(=O)N2CCC(C(=O)NCc3ccccc3)CC2)cc1OC", "hERG current change (%, negative = inhibition) at 10uM": 8.65}
{"smiles": "C=CCNC(=O)C(=O)NCC(c1ccc2c(c1)OCO2)N1CCN(c2ccc(F)cc2)CC1", "note": "(centres unmarked)", "hERG current change (%, negative = inhibition) at 10uM": 3.34}
{"smiles": "O=C(Nc1cccc(Cl)c1N1CCOCC1)c1cccnc1", "hERG current change (%, negative = inhibition) at 10uM": -40.6}
{"smiles": "CC(C)(C)c1ccc(-n2ncc3c2CCCC3NC(=O)C2(C(N)=O)CC2)cc1", "note": "(centres unmarked)", "hERG current change (%, negative = inhibition) at 10uM": -29.1}
{"smiles": "C/C(=N\\NC(=O)c1nc2ccccn2c1C)c1cccc([N+](=O)[O-])c1", "hERG current change (%, negative = inhibition) at 10uM": -23.4}
{"smiles": "C=CCNc1ncnc2c1cnn2-c1ccc(OC)cc1", "hERG current change (%, negative = inhibition) at 10uM": 2.55}
{"smiles": "Cc1ccc(NC(=O)Cc2noc3ccccc23)c(C)c1", "hERG current change (%, negative = inhibition) at 10uM": 11.2}
{"smiles": "O=[N+]([O-])c1cccc(S(=O)(=O)NC2CC3CCC2C3)c1", "note": "(centres unmarked)", "hERG current change (%, negative = inhibition) at 10uM": 4.74}
{"smiles": "COc1cccc(CN2CCN(CCCc3ccccc3)C(CCO)C2)c1O", "note": "(centres unmarked)", "hERG current change (%, negative = inhibition) at 10uM": -72.4}
{"smiles": "Cc1ccc2nc(C3CCN(CC(=O)Nc4ccc5c(c4)OCCO5)CC3)[nH]c2c1", "hERG current change (%, negative = inhibition) at 10uM": -50.6}
{"smiles": "Br.CCn1c(=N)n(CC(=O)c2ccco2)c2ccccc21", "hERG current change (%, negative = inhibition) at 10uM": -3.75}
{"smiles": "COc1ccc(CN2CCC(CO)(CCOc3ccccc3)CC2)c(OC)c1C", "hERG current change (%, negative = inhibition) at 10uM": -83.5}
{"smiles": "O=C(CN1CCCC1)Nc1ccc(F)cc1", "hERG current change (%, negative = inhibition) at 10uM": 23.3}
{"smiles": "O=C(Cc1c(O)c2ccccc2[nH]c1=O)NC1CCCCCC1", "hERG current change (%, negative = inhibition) at 10uM": 3.69}
{"smiles": "Cc1ccc(NS(=O)(=O)c2ccc(NC(=O)c3ccc(Br)o3)cc2)c(C)c1", "hERG current change (%, negative = inhibition) at 10uM": -11.8}
